# Hit rate of the full screen: of about 110,000 compounds, about 230 (0.21%) showed an effect of 50% or more. The list shows a part of the results.
# Molecular target: DPAP1 (Plasmodium falciparum, UniProt Q8IIJ9)
# Test: primary screen, percent inhibition; read by cleavage of a fluorogenic dipeptide substrate; higher = more effect of the substance
# Parameters: species or system P. falciparum D10 trophozoite lysates; single well
# 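Further: 30 min substrate incubation versus DMSO and 10 µM JCP410 controls.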
# DPAP1, sequence (Q8IIJ9 whole entry, looked up): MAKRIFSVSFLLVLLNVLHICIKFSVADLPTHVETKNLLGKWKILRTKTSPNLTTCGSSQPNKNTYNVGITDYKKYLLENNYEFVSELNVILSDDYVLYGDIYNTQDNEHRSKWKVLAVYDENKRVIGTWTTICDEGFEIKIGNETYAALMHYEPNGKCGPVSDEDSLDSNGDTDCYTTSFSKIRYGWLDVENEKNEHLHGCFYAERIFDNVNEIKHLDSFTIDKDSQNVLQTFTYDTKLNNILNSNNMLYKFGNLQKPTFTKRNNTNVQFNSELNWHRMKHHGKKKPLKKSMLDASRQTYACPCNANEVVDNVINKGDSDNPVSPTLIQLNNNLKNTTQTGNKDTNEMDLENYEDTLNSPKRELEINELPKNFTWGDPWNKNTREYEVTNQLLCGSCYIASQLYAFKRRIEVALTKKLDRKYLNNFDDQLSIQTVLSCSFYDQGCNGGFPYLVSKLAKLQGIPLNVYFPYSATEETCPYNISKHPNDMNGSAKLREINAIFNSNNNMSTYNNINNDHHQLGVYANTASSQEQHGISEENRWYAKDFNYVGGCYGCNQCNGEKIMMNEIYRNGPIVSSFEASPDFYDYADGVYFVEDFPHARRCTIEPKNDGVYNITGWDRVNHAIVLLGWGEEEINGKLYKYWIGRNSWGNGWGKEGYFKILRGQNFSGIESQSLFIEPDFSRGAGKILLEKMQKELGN
row,SMILES,% Inhibition @ 10 uM
1,Cc1cc(C)c(NC(=O)C2CCCN2c2ccccc2)c(C)c1 (stereo not drawn),1.43%
2,CC(C)OCC(O)CNC(C)(C)CC(C)(C)C (stereo not drawn),8.71%
3,C=CCOc1ccc(/N=c2/onc(C)cc2-c2ccccc2)cc1,-2.53%
4,CCOC(=O)c1ccc(-c2ccc(/C=C(/C#N)C(=O)N3CCOCC3)o2)cc1,-1.84%
5,C=CCn1c(=O)c2c(nc3n2CCS3)n(C)c1=O,-1.2%
6,CCOc1cc(C(=O)Nc2sc3c(c2C#N)CCC(C)C3)cc(OCC)c1OCC (stereo not drawn),1.25%
7,O=C(c1cc2c(Cl)ccc3c2n1CCO3)N1CCOCC1,2.48%
8,O=C(CCCCCN1C(=O)c2ccccc2C1=O)Nc1ccc(C(=O)O)cc1,-3.16%
9,CCOC(=O)c1c(NC(=O)c2ccc(C(F)(F)F)cc2)sc2c1CCCC2,-1.93%
10,COc1ccc(C(=O)N/C(=C\c2ccc3c(c2)OCO3)C(=O)NCC(=O)O)cc1,-4.76%
11,OC(COc1ccccc1)Cn1ccnc1 (stereo not drawn),3.16%
12,COc1cc(C)c(CNCCc2ccc(OC)c(OC)c2)cc1C,9.1%
13,Cc1sc(N)nc1C12CC3CC(CC(C3)C1)C2,-0.0369%
14,O=C(CCCOc1ccc(Cl)cc1Cl)NCc1ccco1,8.74%
15,CC1=C(c2ccc(C(C)C)cc2)S(=O)(=O)N=C1NC1CCC(C)CC1 (stereo not drawn),2.27%
16,CC1CCN(C(=O)c2cnn(-c3ccccc3Cl)c2C2CCN(C(=O)OC(C)(C)C)CC2)CC1,0.184%
17,Cc1ccnn1-c1nc(-c2ccc(F)cc2)cc(C(F)(F)F)n1,-3.12%
18,CCNC(=S)Nc1sc2c(c1C(=O)OCC)CC(C)(C)OC2,4.57%
19,COc1ccc(CCN2CC(C(=O)NCc3ccc(C)cc3)CC2=O)cc1OC (stereo not drawn),1.62%
20,COc1ccc(-c2noc(N3CCC(C(=O)NCc4ccc(F)cc4)CC3)n2)cc1,-3.73%
21,CCCCc1ccc(NC(=O)C2C3C=CC(O3)C2C(=O)O)cc1 (stereo not drawn),2.38%
22,CC(=O)C1=C(O)C(=O)N(CO)C1c1ccc(F)cc1 (stereo not drawn),0.161%
23,CC1(C)CC(NC(=O)CCC(=O)O)CC(C)(C)N1,-5.07%
24,Cc1ccc(S(=O)(=O)N(CC(=O)NCc2ccco2)Cc2cccc(C)c2)cc1,-0.661%
25,CC(=O)c1cccc(NS(=O)(=O)c2ccc(N)cc2)c1,-1.36%
26,CCOc1ccc2nc(N3CCCC(C(=O)N4CCN(c5ncccn5)CC4)C3)sc2c1 (stereo not drawn),1.8%

row,SMILES,% Inhibition @ 10 uM
1,COc1ccc(-n2c(Cc3cccn3C)nnc2SCC(=O)NC2CCCC2)cc1,-9.6%
2,O=C(c1cccnc1NCc1ccccc1)N1CCOCC1,-4.58%
3,Cc1ccc(-c2cc(C(=O)Nc3ccc(S(N)(=O)=O)cc3)c3ccccc3n2)s1,-0.519%
4,COc1ccccc1-c1nnn2c1nc(O)c1ccccc12,-5.12%
5,Cn1c(=O)c2c(nc(CO)n2C)n(C)c1=O,2.5%
6,O=C(O)C1CSC(c2ccccc2O)=N1 (stereo not drawn),2.9%
7,O=C1N=C(Nc2ccccc2)S/C1=C/c1cccc(C(=O)O)c1,-0.312%
8,C=CCNC(=O)Cn1c(=O)sc2ccccc21,-0.636%
9,CCOc1ccc2nc(NC(=O)Cn3c(-c4ccc(F)cc4)cc(C(C)=O)c3C)sc2c1,-1.88%
10,COc1ccccc1C(=O)NCCOc1ccc(C(C)(C)C)cc1,-1.17%
11,Cc1ccc2oc(=O)c3cnn(CC(=O)N(C(C)C)C4CCCCC4)c3c2c1,-3.45%
12,CCOC(=O)c1cnc(SCc2cccc(Cl)c2)nc1N,0.189%
13,O=C(O)c1ccc2oc(=O)c(S(=O)(=O)c3ccccc3)cc2c1,0.44%
14,CCOc1cc(CNc2ccc3c(c2)OCCO3)cc(Br)c1OCC(N)=O,1.83%
15,CC(=O)c1cccc(Oc2nc(C)nc3sc4c(c23)CCCC4)c1,2.7%
16,COc1ccc(Cl)cc1C(=O)NCCn1ccc2ccccc21,-1%
17,CCCCOc1ccc(C(C)(O)CCN2CCOCC2)cc1 (stereo not drawn),-2.17%
18,CSc1nc2c(c(=O)[nH]c(=O)n2C)n1C/C=C(/C)Cl,1.54%
19,CCCOc1ccc(Oc2nc(NC(C)(C)C)nc(N(C)C)n2)nn1,-4.91%
20,O=C(O)c1ccc(OC2CSC2)cc1,-0.386%
21,CCc1ccc(Cn2nnc3c(O)nc(C4CCN(C(=O)c5ccccc5F)CC4)nc32)cc1,5.35%
22,COc1cc2c(cc1OC)CN(Cc1c[nH]c3ccccc13)CC2,-2.56%
23,OCCC1CCCCN1C/C=C/c1ccccc1 (stereo not drawn),-1.21%
24,CCN1CCN(Cc2ccc(Br)cc2)CC1,-0.969%
25,COc1cccc2c1cc1c(=O)n(CC(=O)NCCc3cccs3)nc(C)n12,0.0198%
